For 39 molecules, TGI and GI50 results are on record in PubChem BioAssay (NCI).

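Exposure lasted 48 hours, with cells grown in 96-well plates and compounds tested at five concentrations. At the GI50, growth is halved. At the TGI there is no net growth.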

In the assay the test system is NCI-H322M lung. The experiment in a line: NCI tumour cell line growth inhibition, 48 h.
In turn, `C=C(C)[C@@H]1CC[C@]2(C)CC[C@]3(C)[C@H](CC[C@@H]4[C@@]5(C)CC[C@H](O)C(C)(C)[C@@H]5CC[C@]43C)[C@@H]12` returned a TGI of over 100 µM.
Same read-out and setting: the result for `CCOC(=O)c1cc(=O)c2ccnc3c2n1CCS3` reads over 100 µM.
As to `COc1ncnc2c(-c3ccccc3)cn(COCc3ccccc3)c12`, the GI50 was 11.3 µM and the TGI is over 100 µM.
For the molecule `CS(=O)(=O)OC1CCC2(C#N)CCC1C2=O` (centres undefined), the TGI is over 100 µM.
As for `Fc1ccc(C2CC(c3cccc(Nc4ccncc4)c3)=NN2c2ccc(Cl)cc2)cc1` (centres undefined), the GI50 was 1.6 µM and the TGI was 3.09 µM.
The molecule `O=C(COc1ccc(Cl)cc1)N1N=C(c2ccc(Cl)cc2)CC1(O)c1ccccc1` (centres undefined) showed a TGI of 35.4 µM.
The molecule `Cc1cc(C)n(-c2nsc3ccccc23)n1` yielded a TGI of over 100 µM.
`COc1ccc(/C=C/C(=O)c2cc(OC)c(OC)c(OC)c2)cc1OCc1cn(Cc2ccc(F)cc2)nn1`: the GI50 is 3.46 µM and the TGI is over 100 µM.
As for `CCOC(=O)N1CCN(/[N+]([O-])=N/Oc2ccc([N+](=O)[O-])cc2[N+](=O)[O-])CC1`, the GI50 is 4.4 µM and the TGI was 15.2 µM.
Turning to `Cc1c(C)c(C)c(-n2c(=O)n(C)c(=O)n2-n2c(=O)n(C)c(=O)n2-c2c(C)c(C)c(C)c(C)c2C)c(C)c1C`, the TGI was over 100 µM.
With `COc1ccc(C(=S)N2CCN(c3cccc(C)c3)CC2)cc1OC`, the GI50 was over 100 µM and the TGI is over 100 µM.
As to `O=C1C(Cl)=C(Nc2cccc(F)c2)C(=O)N1Cc1ccc(Cl)cc1`, the GI50 is 15.1 µM and the TGI came out at 38.1 µM.
In the case of `CC(CC[C@@H](O)C(C)(C)O)C1[C@@H](O)CC2(C)C3CC(O)C4C(C)(C)[C@@H](OC5OC(CO)C(O)C(O)C5O)CC[C@@]45C[C@@]35CC[C@]12C` (some centres undefined), the TGI was over 10 µM.
`NCCCOc1ccc([N+](=O)[O-])cc1Cl` had a TGI of over 100 µM.
As for `O=C1NCC(CSc2nc3cc(C4CCCc5c4[nH]c4ccccc54)ccc3o2)N1` (centres undefined), the TGI is over 100 µM.
Turning to `O=C1/C(=c2\s/c(=C\c3ccccc3)c(=O)n2-c2ccccc2)SC(=S)N1c1ccccc1`, the TGI was over 100 µM.
In the case of `O=NN1C(c2ccccc2)CC(=NO)CC1c1ccccc1` (centres undefined), the TGI was over 100 µM.
`Oc1c(-c2nnc(-c3ccccc3Cl)o2)sc2nnc(-c3ccccc3)c(-c3ccccc3)c12`: the GI50 was 3.34 µM and the TGI came out at 28 µM.
Regarding `COc1ccc(C23C(=O)c4ccccc4N2O[C@H]2C(=O)N(c4ccccc4)C(=O)[C@H]23)cc1` (some centres undefined), the TGI is over 100 µM.
Regarding `Cc1nnn[n-]1.N.N.N.N.N.[Cl-].[Co+3]`, the GI50 was over 100 µM and the TGI was over 100 µM.
The molecule `Cc1c2ccncc2c(C)c2c1[nH]c1ccc(OC(C)C)cc12` returned a TGI of 2.82 µM.
Molecule `CN(C)c1ccc(/C=C/C(=O)CC(=O)/C=C/c2ccc(N(C)C)cc2)cc1` had a TGI of over 100 µM.
`Cc1cc2c(cc1Cl)SC(NNC(=O)c1ccco1)=NS2(=O)=O`: the TGI is over 10 µM.
Same read-out and setting: the result for `c1ccc(-c2nnc(-c3ccccn3)c3c2C[C@@H]2C[C@@H]4Cc5c(-c6ccccn6)nnc(-c6ccccn6)c5[C@@H]4[C@H]32)nc1` reads over 100 µM.
Molecule `Cc1ccc([N+](=O)[O-])cc1S(=O)(=O)Nc1ccc(C2=NOC(c3ccco3)C2)cc1` (centres undefined) returned a TGI of 66.4 µM.
Turning to `OC1c2ccccc2CC12Cc1ccccc1C2` (centres undefined), the TGI was over 100 µM.
Take `O=C1C(Cl)=C(Nc2cccc(Cl)c2)C(=O)N1Cc1ccc(Cl)cc1`: the GI50 was 5.39 µM and the TGI was determined as 19.3 µM.
For `C=C1C(=O)O[C@H]2[C@H]1CC/C(CNC(=O)/C=C/c1cc(OC)c(OC)c(OC)c1)=C\CC[C@@]1(C)O[C@@H]21` the same measures were 12 µM and 25.5 µM.
On to `COC(=O)C1=C(C)C(=O)[C@]23C(CCCC[C@H]12)C(=O)[C@H](C(=O)OC)C3C` (some centres undefined), for which the TGI was over 100 µM.
As to `N.N.N.N.N.NC(=O)c1nn[n-]n1.[Cl-].[Co+3]`, the GI50 is over 100 µM and the TGI is over 100 µM.
In the case of `CN(CCO)CC[C@H](CSc1ccccc1)Nc1ccc(S(=O)(=O)NC(=O)c2ccc(N3CCC([C@@H](O)c4ccccc4-c4ccc(Cl)cc4)CC3)cc2)cc1S(=O)(=O)C(F)(F)F`, the GI50 was 2.52 µM and the TGI was determined as 15.6 µM.
For `COc1ccc2[nH]cc(-c3ccc(-c4c[nH]c5ccc(OC)cc45)s3)c2c1` the same measures were 9.99 µM and over 39.5 µM.
Molecule `CC(=O)OC/C=C/[C@H](O[Si](C)(C)C(C)(C)C)[C@@H](O)/C=C/COC(C)=O` registered a TGI of over 100 µM.
`O=C1NC2=C(CCCC/C2=N\O)C12CCCCC2` returned a TGI of over 100 µM.
On the same count and under the same terms, the result for `C/C(=N\NC(=S)N1CC2CCC(CC2)C1)c1nccs1` reads 14.3 µM.
Consider `CCN(Cc1ccc(Cl)cc1)c1ccc(CO)c(Cl)c1`, for which the GI50 was 7.79 µM and the TGI came out at 22.2 µM.
The corresponding values for `C/C=C(\C)C(=O)NC1=CC[C@@]2(C)C(=CCC3C2CC[C@@]2(C)C3CC[C@@H]2C(C)N(C)C)C1=O` (some centres undefined) are 3.09 µM and over 28.7 µM.
In turn, `COC(=O)C1CC2CCC1(O[Si](C(C)C)(C(C)C)C(C)C)C(O)C2` (centres undefined) came in with a TGI of 95.4 µM.
`CC1(C)O[C@H]2[C@H](O)C[C@](O)(CO)C[C@H]2O1` had a TGI of over 100 µM.
